Experimental data as given in article PMC10774418, “A cyclin D1 intrinsically disordered domain accesses modified histone motifs to govern gene transcription” (Oncogenesis, 2024).
Results are given in words; binding and its absence hold for the method and conditions named. Some binding calls cover weakened binding; strength is not graded here.

The chains behind the UniProt entries cited, without tags or fusion partners. Where a name states a change or a piece, a line headed by the entry shows the natural chain unless it says otherwise. A line that says so, or that is headed by a name, gives the form on record, which may keep a tag or linker.
UniProt P11802: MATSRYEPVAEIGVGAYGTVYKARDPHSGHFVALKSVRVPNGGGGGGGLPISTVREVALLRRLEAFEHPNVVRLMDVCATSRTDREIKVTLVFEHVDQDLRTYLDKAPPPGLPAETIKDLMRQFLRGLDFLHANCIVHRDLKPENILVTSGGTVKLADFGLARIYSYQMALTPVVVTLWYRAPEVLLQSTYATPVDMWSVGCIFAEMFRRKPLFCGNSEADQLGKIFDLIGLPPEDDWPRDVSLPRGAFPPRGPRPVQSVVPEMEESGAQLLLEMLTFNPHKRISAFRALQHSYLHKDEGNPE
UniProt P24385: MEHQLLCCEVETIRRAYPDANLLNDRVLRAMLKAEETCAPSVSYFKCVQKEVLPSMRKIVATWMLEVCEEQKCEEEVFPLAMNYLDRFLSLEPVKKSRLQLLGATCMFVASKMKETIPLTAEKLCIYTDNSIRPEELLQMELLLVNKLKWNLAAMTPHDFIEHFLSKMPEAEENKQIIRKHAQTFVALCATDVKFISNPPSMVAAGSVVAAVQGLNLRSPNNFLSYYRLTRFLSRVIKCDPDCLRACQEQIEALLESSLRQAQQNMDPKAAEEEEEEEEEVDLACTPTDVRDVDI
VP16-cyclin D1 E278/280A (P24385, form named): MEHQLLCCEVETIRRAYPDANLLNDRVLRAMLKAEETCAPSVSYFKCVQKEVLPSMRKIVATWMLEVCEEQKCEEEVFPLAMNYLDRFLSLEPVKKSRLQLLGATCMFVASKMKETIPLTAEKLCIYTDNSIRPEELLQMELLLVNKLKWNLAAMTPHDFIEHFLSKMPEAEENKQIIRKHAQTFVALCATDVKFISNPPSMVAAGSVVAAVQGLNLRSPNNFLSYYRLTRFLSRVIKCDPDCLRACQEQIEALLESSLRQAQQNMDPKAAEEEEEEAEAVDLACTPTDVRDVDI
VP16-cyclin D1 KE (point substitution of K114) (P24385, form named): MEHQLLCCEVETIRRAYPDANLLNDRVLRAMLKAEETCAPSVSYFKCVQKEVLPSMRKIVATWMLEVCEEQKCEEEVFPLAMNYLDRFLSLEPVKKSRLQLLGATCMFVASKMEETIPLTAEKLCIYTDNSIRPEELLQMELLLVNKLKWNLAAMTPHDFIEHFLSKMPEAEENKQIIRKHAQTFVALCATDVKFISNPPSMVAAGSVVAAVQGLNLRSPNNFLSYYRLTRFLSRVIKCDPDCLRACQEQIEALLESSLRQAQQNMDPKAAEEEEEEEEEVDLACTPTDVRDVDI
VP16-cyclin D1 ΔE (P24385, form named): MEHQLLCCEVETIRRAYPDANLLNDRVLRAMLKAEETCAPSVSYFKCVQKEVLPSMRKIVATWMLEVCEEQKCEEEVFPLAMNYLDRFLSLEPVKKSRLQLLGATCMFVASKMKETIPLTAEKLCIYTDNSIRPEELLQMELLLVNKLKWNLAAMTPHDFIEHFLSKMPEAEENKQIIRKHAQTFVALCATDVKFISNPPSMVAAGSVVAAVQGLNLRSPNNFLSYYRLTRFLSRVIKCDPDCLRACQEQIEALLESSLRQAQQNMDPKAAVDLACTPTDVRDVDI

Biological target: Gal4-CDK4 (human) (UniProt P11802)
Test: two-hybrid; mammalian two-hybrid (Promega): Gal4-CDK4 (pBIND), VP16-cyclin D1 (pACT) and pG5-Luc co-transfected into MCF-7 or HEK-293T cells; luciferase read 48 h after transfection

Substance | binding
VP16-cyclin D1 C4 (aa179-aa295) (from UniProt P24385 179-295) (domain or fragment) | no binding
VP16-cyclin D1 E278/280A (from UniProt P24385 1-295) | binds
VP16-cyclin D1 E278A (from UniProt P24385 1-295) | binds
VP16-cyclin D1 E280A (from UniProt P24385 1-295) | binds
VP16-cyclin D1 KE (point substitution of K114) (from UniProt P24385 1-295) | no binding
VP16-cyclin D1 wild type (from UniProt P24385 1-295) | binds
VP16-cyclin D1 ΔE (from UniProt P24385 1-295) | binds
